Over roughly 81,000 sequences, “one-hybrid fitness for binding NBS DNA” has its median near -0.1; the highest 2% begin near 0.36. The list shows a part of the results.
B1: Caulobacter ParB omega fusion; a variant is named by its letters at X, in order, B8GW30 (parent)
chain: MESVVVGEPGMSEGRRGLGRGLSALLGEVDAAPAQAPGEQLGGSREAPIEILQRNPDQPRRTFREEDLEDLSNSIREKGVLQPILVRPSPDTAGEYQIVAGERAWRAAQRAGLKTVPIMVRELDDLAVLEIGIIENVQRADLNVLEEALSYKVLMEKFERTQENIAQTIGKSXSHVANXMRLLXLPDEVQSYLVSGELTAXHARAIAAAADPVALAKQIIEGGLSVRETEALARKAPNLSAGKSKGGRPPRVKDTDTQALESDLSSVLGLDVSIDHRGSTGTLTITYATLEQLDDLCNRLTRGI

Variants of: B1
Experiment: one-hybrid fitness for binding NBS DNA (the Noc-binding site; scaled: cognate 1, non-cognate 0); higher = stronger binding
Details: with NBS DNA site
Method in brief: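 On M9-minus-histidine containing 0.1 mM IPTG and 5 mM 3-AT, E. coli USO cells with a HIS3 reporter, site 19 bp from the promoter, grew 48 hours at 37°C to select Caulobacter ParB libraries randomised at four specificity codons. Plasmids from before and after were Illumina-sequenced, with three replicate libraries pooled and variants under 10 reads left out. Fitness is the log change in variant-to-wild-type read ratio, rescaled against cognate and non-cognate.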

one-hybrid fitness for binding NBS DNA, 0.466:
QLKA

one-hybrid fitness for binding NBS DNA, ≤ 0.2:
LLQW
WKCR
PREP
QMLF
VMNC
VKTT
YMAD
QNQH
YFMS
KNAS
THTY
GKGR
DDTT
ACCR
WRGG
PNCT
RRPP
ANAR
PANT
TASD
CHRT
IREV
TYIL
YGVF
LPTA
SVWC
DYYS
MLVM
GDGE
VLFP
ATRG
WPYR
HEPQ
ERPV
QHTM
MCRL
ETDR
LDHL
HGKS
NMPG
ARRL
LIQS
RMGE
TYRF
HYTV
ARPR
RMAF
GPTI
VMQS
SCHW
EKSS
ISAY
QENV
KVNC
IADG
EKRH
LCRL
RNRE
IDQG
SWPG
QPEM
KLRM
QQSD
RSLM
YCMR
GHRR
YSNC
TICM
GKKT
RFYL
TDPC
IHIS
LTFC
LLQC
DFLV
YTKR
SLHW
NGGT
RGRQ
NMTN
CRKA
QLCI
RIDI
FVTQ
NHAI
THQT
GLGG
FCML
LTRE
NATF
GTWE
YCSV
ENTG
KYMG
IFMG
SVMV
HHTT
QGHG
PASL
SPCV
YVDF
ATRS
DFNT
NEPG
AHDG
EVRV
NHHS
SGPW
WSDC
IARR
HPAW
ITAD
RMDD
KCTN
MGLC
WRKL
DTNM
QFLL
RGAI
RHDG
HKPR
KMSM
VGLL
TMIS
SSDG
QPKQ
GGVR
RVEW
IYYC
RFMK
IMFV
DRNT
QLTH
QKCF
GQQY
RPEY
RYTW
YAQM
DTLA
RYCY
SIIV
DPTM
WSSV
RQIQ
WTDE
VNNR
SDFC
DSTS
PEKS
ARIR
KRMD
LHSY
AMEV
NSQT
HHRT
IGKV
LQAR
PYII
DLWA
NWPD
ETVF
RITI
KEHG
LSMW
EVKL
TSPG
KRDK
HKNW
HLCW
HPPP
APDG
LQPC
DAAA
PPTT
SFWF
HAWC
LYKN
SINR
RCRW
IMAC
HMCS
CAPC
SPQA
NHND
QGGL
PCES
FISR
DPWK
DMTN
FETR
DSPS
VAWC
SGSC
MPRE
VMIM
YWVI
VALC
LSIE
FAIM
KPLE
QITQ
LELT
CHMT
GMPC
VYNA
WNKR
RSVQ
CAGA
LGPR
RNAD
CPHL
GASG
QNHM
PMLC
VLMT
YSYW
AAPR
TVPE
TEVG
NTHV
SSVK
PNAF
ENNR
TMSC
IRAK
TFWC
FWMG
AAHF
RMPI
AEGS
AVDN
LWLG
CSAL
TRFG
GLTG
TPDR
MLMI
AMSW
WVTR
RKTW
ANEG
CGNT
NIDR
QCYK
CHRR
NCRF
WHDC
SQCM
RMCM
TISD
HDDY
QHHD
ILLT
TLTV
VERF
SNKI
VERY
WNGI
QFLW
TYLN
TRLH
SYHR
DNME
LNWH
MLSY
LRKY
RWNV
DNTG
HWLG
GPCV
THQA
GCRT
YKLR
CCQS
LRFT
CYPG
DPVT
QMWA
LNCC
KGIC
ASFT
AMLG
VHCN
CVTG
DSSM
TRID
WVTQ
FMIT
YYRW
NNHS
GDYG
AVIR
CVTS
SVLH
CTVP

one-hybrid fitness for binding NBS DNA, 0.292:
TRRH

one-hybrid fitness for binding NBS DNA, 0.77:
QVRR

one-hybrid fitness for binding NBS DNA, 0.254:
RRYV

one-hybrid fitness for binding NBS DNA, 0.408:
QHFR

one-hybrid fitness for binding NBS DNA, 0.238:
QTQQ

one-hybrid fitness for binding NBS DNA, 0.285:
RFTS

one-hybrid fitness for binding NBS DNA, 0.765:
RRQR

one-hybrid fitness for binding NBS DNA, 0.578:
RHKT

one-hybrid fitness for binding NBS DNA, 0.424:
QTGH

one-hybrid fitness for binding NBS DNA, 0.225:
QCTY

Reference: a collection of fitness landscapes (doi:10.1016/j.celrep.2020.107928)
